Measured values: article PMC8346517
Results are given in words; binding and its absence hold for the method and conditions named. For some of these results: Binding seen in cells or lysates may run through a third protein. Some results given as binding are weak or reduced against the parent protein; the word gives no strength.

Amino acid sequences for entries named in this document (tags omitted). A change or cut given only in a name is not applied to a line headed by its entry. Residues count along the entry.
UniProt O22456: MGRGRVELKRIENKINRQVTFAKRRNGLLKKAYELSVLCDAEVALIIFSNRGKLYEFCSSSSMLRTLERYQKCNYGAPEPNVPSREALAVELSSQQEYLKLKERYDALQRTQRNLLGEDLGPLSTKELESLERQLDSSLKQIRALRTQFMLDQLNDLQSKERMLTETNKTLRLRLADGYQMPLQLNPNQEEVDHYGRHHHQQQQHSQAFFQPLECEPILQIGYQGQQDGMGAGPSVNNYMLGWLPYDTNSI
SEP3^MI(1-90)-3FLAG: residues 1-90 of O22456
SEP3^M(1-57)-3FLAG: residues 1-57 of O22456
UniProt P17839: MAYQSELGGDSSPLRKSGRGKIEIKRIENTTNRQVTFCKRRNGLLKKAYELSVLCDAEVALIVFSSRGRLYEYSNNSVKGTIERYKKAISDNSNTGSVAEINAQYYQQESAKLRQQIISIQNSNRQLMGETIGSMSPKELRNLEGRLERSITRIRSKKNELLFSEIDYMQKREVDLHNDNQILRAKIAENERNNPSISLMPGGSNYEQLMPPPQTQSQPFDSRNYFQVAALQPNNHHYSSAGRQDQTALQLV
UniProt P35631: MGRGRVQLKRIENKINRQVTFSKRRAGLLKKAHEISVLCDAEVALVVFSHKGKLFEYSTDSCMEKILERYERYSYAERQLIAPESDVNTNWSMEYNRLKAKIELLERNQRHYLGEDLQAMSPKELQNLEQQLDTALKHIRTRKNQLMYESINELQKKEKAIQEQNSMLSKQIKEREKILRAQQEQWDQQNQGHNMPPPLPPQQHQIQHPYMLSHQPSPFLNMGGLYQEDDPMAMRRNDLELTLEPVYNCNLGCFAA
UniProt O64645: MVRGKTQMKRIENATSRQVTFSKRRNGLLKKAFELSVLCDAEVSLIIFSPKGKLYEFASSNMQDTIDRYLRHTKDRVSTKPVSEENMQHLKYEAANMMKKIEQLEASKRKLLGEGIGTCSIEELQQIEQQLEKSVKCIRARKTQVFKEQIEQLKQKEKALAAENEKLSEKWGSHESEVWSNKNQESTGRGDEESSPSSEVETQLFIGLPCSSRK
UniProt P29382: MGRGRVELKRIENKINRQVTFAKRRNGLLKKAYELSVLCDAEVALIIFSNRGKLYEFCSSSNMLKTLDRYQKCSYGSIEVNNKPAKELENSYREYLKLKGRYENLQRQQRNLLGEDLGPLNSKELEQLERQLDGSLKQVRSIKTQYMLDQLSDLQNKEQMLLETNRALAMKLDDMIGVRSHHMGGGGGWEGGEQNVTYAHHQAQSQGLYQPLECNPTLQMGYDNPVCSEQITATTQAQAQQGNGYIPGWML

Experiments:
[1] = target: SEP3^M(1-57)-3FLAG (Arabidopsis thaliana) (UniProt O22456); test: pull-down; both constructs co-translated in wheat germ extract (double input reaction), completed with PBS (150 mM sodium phosphate pH 7.2, 150 mM NaCl), anti-Myc or anti-FLAG magnetic beads, 1 h at 4 °C, four washes, western blot with anti-c-Myc and anti-FLAG
[2] = target: AGAMOUS (AG), yeast two-hybrid fusion (Arabidopsis thaliana) (UniProt P17839); test: two-hybrid; matrix-based Gal4 yeast two-hybrid, targets in both bait and prey vectors; 7 days at 20 °C; scored positive only with growth on all three selective media (-LWH + 1 mM 3-AT, -LWH + 5 mM 3-AT, -LWA) and in both replica
[3] = target: AG^IAP1 (AG with residues 74-107 replaced by residues 58-92 of AP1), yeast two-hybrid fusion (Arabidopsis thaliana) (UniProt P17839+P35631); test: as above
[4] = target: SEP3^MI(1-90)-3FLAG (Arabidopsis thaliana) (UniProt O22456); test: pull-down; both constructs co-translated in wheat germ extract (double input reaction), completed with PBS (150 mM sodium phosphate pH 7.2, 150 mM NaCl), anti-Myc or anti-FLAG magnetic beads, 1 h at 4 °C, four washes, western blot with anti-c-Myc and anti-FLAG
[5] = target: APETALA1 (AP1), yeast two-hybrid fusion (Arabidopsis thaliana) (UniProt P35631); test: two-hybrid; matrix-based Gal4 yeast two-hybrid, targets in both bait and prey vectors; 7 days at 20 °C; scored positive only with growth on all three selective media (-LWH + 1 mM 3-AT, -LWH + 5 mM 3-AT, -LWA) and in both replica
[6] = target: SEP3-3FLAG (full-length, pTnT-SEP3-3FLAG) (Arabidopsis thaliana) (UniProt O22456); test: pull-down; sequential purification for seq-DAP-seq: co-translated in a TnT reaction, anti-FLAG magnetic beads in IP buffer (PBS, 0.005% NP40), elution with 3xFLAG peptide, then capture on anti-c-Myc magnetic beads

binding [1] | binding [2] | binding [4] | Substance | other results
binds |  |  | AG^M(1-73)-5MyC (from UniProt P17839 1-73) (domain or fragment) | 
 | no binding |  | SOC1, yeast two-hybrid fusion (from UniProt O64645 1-214) | binding [3]: binds
 |  | binds | AP1^MI(1-92)-5MyC (from UniProt P35631 1-92) (domain or fragment) | 
binds |  |  | AP1^M(1-57)-5MyC (from UniProt P35631 1-57) (domain or fragment) | 
 | binds |  | …1 (SEP1), yeast two-hybrid fusion (from UniProt P29382 1-251) | binding [5]: binds
 |  |  | AG^IAP1-5MyC (full-length chimera, pTnT-AG^IAP1-5MyC) (from UniProt P17839 1-73; P35631 58-92; P17839 108-252) | binding [6]: binds
binds |  |  | AG(ΔN)^M(17-73)-5MyC (from UniProt P17839 17-73) (domain or fragment) | 
 |  | binds | AG^MI(1-107)-5MyC (from UniProt P17839 1-107) (domain or fragment) | 
 |  | binds | AG(ΔN)^MI(17-107)-5MyC (from UniProt P17839 17-107) (domain or fragment) | 
 | binds |  | …3 (SEP3), yeast two-hybrid fusion (from UniProt O22456 1-251) | binding [5]: binds
